In the supplement of paper PMC12632987:
Over roughly 4,500 sequences, “median log2 fold change of GCK-ALFA target abundance (FLAG IP / Myc IP barcode read proportion)” has its median near 0.078; the lowest 2% begin near -0.6. This is one part of the list.

B1: GBRAP_9_7121 (protein)
chain: NPELIKKMAEVAKEMVEDIAEAVPEVTEEQKEEFLKRIEKLEKELLANKNATPEEAAKAFKKLVKEIRDEVKAIVDPELAKIVDAIALTAEEEIEEIVEE
B2: GBRAP_48_5831 (protein)
chain: MKLDLEKLEKLVEETVEEMKEIYEEAKKEGLSDEDILKMIKAELGDLALELEEAGYEKAADWLLEKENRDALAEKLLELFKEGKYEEAKKYLLEELLKAE
B3: GBRAP_160_4677 (protein)
chain: MEEKEKLLKEIREILEEAVEMMEGESLEERVAIAEVAGGDIILLLEESPIVTDEVVDYADEIMDEFVERIRENPELTREELRELAEEALKKIEEEIEKNS
B4: GBRAP_160_4383 (protein)
chain: EEELEKLIEEIKELRKEFEEEAKNLNSEETRILAIGVLSEIAALVWENEAVSEETKDKIAEIIDEAIEKIKESKNANPEEIVEITKEAIDEIIKLIEKEK
B5: GBRAP_78_6733 (protein)
chain: EVEEELEKAIELLEKALKLALGRVSNEVIAELVEALSEVEEALELLEEGGEKEEIIEEIEEAIEHLKEALKLLPESEKEIRELVKKAIEELKRALEEVKK
B6: GBRAP_83_6888 (protein)
chain: AEEIVVGATADHVEAAVAAAIDLAREEGYRVVLDLAVTPEAVPRLLAALARAAAAGVRLELEVTVVAPTREEAEATAAEIRAAAEALGAASSLRVETEVV
B7: GBRAP_128_3573 (protein)
chain: SMEEKLKEAEELIETIINSDLETAREAAEKLVALIGESDEETREKIVELVLKALPKLTKEKLLVLADVLREKRPELDPLAAEYAADIEVAALNEAEELEE
B8: GBRAP_166_4897 (protein)
chain: STAEAIARIEALAEETIARIAELTPEELLAAFVEMAEIVEEAGATPELIAAAAKAFARVARAAVAAGRDWDEVETLILGAVGYNEKLLDAVEAELAAARA
B9: GBRAP_137_3654 (protein)
chain: MKININITIDGDFAEIEIKADTKELAEKSADILYEVAKETGVAIAISLDLENKTVYADLLGEKEKIREAIEKFIEKLSKIADVNLTLTEDGKTTKEEIKK
B10: GBRAP_160_3974 (protein)
chain: KEEIEELEKEIEEIFDEAIEMIKGESYENRLTIIRVMVGEILLLADENELISDELEEEIDEIGDELIAYIEANPDLTDEEITALIEEARDKILEAIKKEH
B11: GBRAP_184_5090 (protein)
chain: KTYEALVEAETKEEALKKLEEVLEKAAKEKANLTVLVDLKGLDVEEAIELLEKAGKAKKEGKVPDVTVGFANAFTEEEVDKILKKADEVGVKVVLPLKEE
B12: GBRAP_26_5465 (protein)
chain: MEEAFKKAIEKIDEITAKLPNPEAAAALRALADTEIEELEEDIENGEDIDKAVEKHEKEFLEEAREILEEAGLPEELIEKTLEEFRKVFDELKEDLKKEQ
B13: GBRAP_83_6945 (protein)
chain: KEHWVVAAPGDRVEEAVEIALDLKKEEGKEVSLEVIFSDEQAEKVVEAIKEGIKKGLETEILLVHTDSNLEKAEEVAEKIKKAAKEAGKKVEVKVAVLEP
B14: GBRAP_128_3497 (protein)
chain: SVEEAVARTRALMAAIGEADAAEAAALTAEWVALLAGLDAEGREAAVAVAEELLPELDAERLDVVADTLRAARPSLDPETANLVADLEVEALNAAEEKEE
B15: GBRAP_55_6434 (protein)
chain: SEDEELDKEASEDLVETAAALVEDPAAMERVINRLAKEQAGHPIYVTKEALDLLPTEEQRRAFLTALVRAAKANPKIKGIKLVDVSEEDKALLEEAKKEV
B16: GBRAP_125_3050 (protein)
chain: ALEAAVAALAALARLLGLSDEEVAELAALARRHGVKGALIALLLAEGEEEAAELAARLSEEAVVAVLLEFAAWLAAHPDISREEALARLRELLRAALARE
B17: GBRAP_11_2719 (protein)
chain: KKEELEKLAKKAEELAKKVEKLIKEGPKKEEIKKLKEEVEKLREEAKKIGADEDILKTLEIAAEDLKEAIEKPENVKEHLKNAKAALRVAAGQLLLEAEE
B18: GBRAP_35_5537 (protein)
chain: NEEEEEVEMIVNTMEDIVEALPDVSPEEQLTLAKHLIKLAKDLVEEKPKNKELVKRAIENLERAIEIIKKSDLPEEEQEKLIKELKEVKEKLEKILKENE
B19: GBRAP_128_3317 (protein)
chain: MDEERLEEFEELAEEAKTADLERLREITRRMVELIGELDEEEREEAEEIFREALEKLDAEKLDVVADTLEEKRPELDEEAANVVAGLEVDALNLAEEKEE
B20: GBRAP_125_2982 (protein)
chain: PTEQELEDLRRFARALGLDEEEAEEAAELARAHSLRGTVYAILAALGEEEAADLVEKLTEEEVARVLRRVAAYLEAHPDATPEEVVALFRELAEEELAKR
B21: GBRAP_128_3542 (protein)
chain: SLEEARERAEKVMEEIKNSTVEEAAEITRAFLEELKTWSDEEVEAAVDVVIEKLPELTAEKLEAVADTIREQRPKFSPEKQNLLADVEVEALNEALEKEE
B22: GBRAP_125_3048 (protein)
chain: SMEEAIEALAAIARLLGYSEEEVEEIKELARRHGVKQTLIAIALAEGEEELADLAAKLTDEEIEEVLKKLLAWLKAHPDATAEEVLAKLKELLEEALAKK
B23: GBRAP_150_3932 (protein)
chain: SLEELEILTDTLLDLIEVIPELGLPMAEHAAKVAKAAEDEAKEIDPELAELAAKALKALEELIKAMKAGAKQEELDKLIEKALEYAKKLLEKVEELKKKA
B24: GBRAP_83_6943 (protein)
chain: KEKVTVAAPGDRVEEAVEIAFDLQEEEGLEVVLEVLFTSEERERVLAALEAAIDRGFEGEIHLYSLDRDEAGLEAAVAALRARAAAAGRDVTVTGHVNEE
B25: GBRAP_166_4950 (protein)
chain: SLEEIKKELTELIERLAEKMKTANAEEQLELYAEIAEELAKAKEAGLSDEDLLALATRALELTKEAGGSVEQLLGVIEMFVDLTEEERDRLAAAAEAVLA
B26: GBRAP_160_4560 (protein)
chain: MERAEELVRETREDVERTLEETKNDSVENIRTAVVVTLGEHALEAAEDPRYSDEMVDAILDAGDRIAATLAELKNASYEERRAAVLAIVDEMGERILAIA
B27: GBRAP_52_5982 (protein)
chain: MRERMRRLAEELVRLVLEGREEEARELMERAARELSEEELEMIAEELAELAKTATPEEQDAILRAAEMMEDVWLKAGFDEALADDGLARVAAAVYDALQR
B28: GBRAP_128_3603 (protein)
chain: AVEEARERAREAIEKIKESDDEEAKKIAKELAEWLLTKSLEEVKAAMEEIERRAPELSEEKLLILQDALHEAAKKASPEKQEVLLAAVGELGAEAYEKTE
B29: GBRAP_52_5850 (protein)
chain: MEEEAKKLAEELVKLKKEGKEEELEKKVKEIVETKSEEEIVEILKELAKIAKEVTPEEAEAIFEVAELLAREAEKAGFNEDELSYELALVGAAVYEAEQR

Each binder was assayed against GABARAP, O95166 (assay: median log2 fold change of GCK-ALFA target abundance (FLAG IP / Myc IP barcode read proportion) (log2 ratio); each designed protein is fused to an ALFA-tag nanobody in HEK293 cells to bring the named protein to FLAG-tagged glucokinase (GCK); Myc marks an untargeted standard; higher = target protein stabilised (more abundant)). Details: target protein: 3xFLAG-MCP-GCK-ALFA reporter; HEK293 landing pad (RPLP).
Sequence of GABARAP, O95166 (O95166 whole entry, the tested form may be a part): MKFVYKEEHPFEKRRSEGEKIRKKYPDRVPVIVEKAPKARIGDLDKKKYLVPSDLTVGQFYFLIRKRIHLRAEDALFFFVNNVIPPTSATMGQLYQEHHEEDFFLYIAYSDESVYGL
In short: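 Binders fused to an ALFA nanobody were recombined as a library into HEK293 landing-pad cells, which were induced with 2 μg mL^−1 doxycycline and then transfected to express a FLAG-tagged target and a Myc-tagged standard. After 48 h, circular RNA barcodes recovered by anti-FLAG and anti-Myc immunoprecipitation of lysates were reverse transcribed, amplified and sequenced. Each binder's target abundance is the median log2 ratio of FLAG to Myc barcode read proportions, from barcodes present at ≥10^−7 in both replicates, binders carrying ≥3 barcodes per replicate, a 10^−6 pseudocount and pooled replicates.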

Row | Binder | median log2 fold change
1 | B1 | 0.0132
2 | B2 | 0.142
3 | B3 | -0.212
4 | B4 | -0.167
5 | B5 | -0.332
6 | B6 | -0.0788
7 | B7 | 0.271
8 | B8 | 0.179
9 | B9 | -0.0874
10 | B10 | -0.442
11 | B11 | 0.01
12 | B12 | 0.353
13 | B13 | -0.0917
14 | B14 | 0.112
15 | B15 | 0.333
16 | B16 | -0.054
17 | B17 | 0.119
18 | B18 | 0.214
19 | B19 | -0.111
20 | B20 | -0.551
21 | B21 | -0.126
22 | B22 | -0.167
23 | B23 | 0.239
24 | B24 | 0.0825
25 | B25 | 0.212
26 | B26 | -0.223
27 | B27 | -0.0134
28 | B28 | 0.311
29 | B29 | 0.153
